Source: PubChem BioAssay AID1347073 (National Center for Advancing Translational Sciences (NCATS), 2019)
Screen size: about 45,000 compounds; about 200 (0.44%) were called active. Not shown: some 7% with an inconclusive outcome. Calls follow the shape of the dose curve; as a rule, active = well fitted activation curve with a large enough effect; inconclusive = small, poorly fitted or top-dose-only effect; inactive = no such curve, though single readings can be large or run the other way. Some of the results follow.

Test: qHTS of TDP-43 Inhibitors: NCGC Sytravon Library Screen; also: 0% is about no effect; nearly all actives have a fitted effect of over 55% in size
Settings: yeast TDP-43 toxicity rescue, BacTiter-Glo growth, 24 h; series mostly up to 46.1 µM; growth rescue (activation): at the top concentration
Method in brief: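 TDP-43-expressing yeast, pregrown in raffinose, seeded at OD600 0.02 in galactose medium with compound for 24 hr at 30 deg C. Growth read by BacTiter-Glo luminescence, so rescue of toxicity appears as activation.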

| Compound | growth rescue (activation) |
| --- | --- |
| Cc1oc(-c2cccs2)nc1CN1CCC(C(=O)N2CCCC2)CC1 | inactive: 17.2% |
| CCc1ccc(C(=O)N2CCN(c3ccc(NC(=O)c4ccco4)cc3)CC2)cc1 | inactive: 40.5% |
| S=c1[nH]nc(-c2cccc(Cl)c2)n1Cc1ccccc1 | inactive: 20.5% |
| O=C(CCc1nnc(-c2ccc3c(c2)OCO3)o1)N1CCC(c2ccc(F)cc2)C1 (stereo unspecified) | inactive: 21.5% |
| Cc1ccc(S(=O)(=O)N2CCCC(C(=O)NCC(C)C)C2)cc1 (stereo unspecified) | inactive: 13.4% |
| Cc1nnnn1CC(=O)Nc1ccccc1[N+](=O)[O-] | inactive: 14.6% |
| COC(=O)c1cc(NC(=S)N2CCN(c3ccccn3)CC2)cc(C(=O)OC)c1 | inactive: 17.8% |
| CCOC(=O)c1cc(S(=O)(=O)NC2CCN(C(=O)OCC)CC2)cn1C | inactive: -13% |
| O=C(COC(=O)c1cccnc1Cl)Nc1cc(S(=O)(=O)N2CCCCCC2)ccc1Cl | inactive: 30.8% |
| Cc1cc(NC(=O)COc2cccc(Oc3ccccc3)c2)no1 | inactive: -8.59% |
| C/C(=C\C(=O)c1sccc1Cl)N(C)C | inactive: -6.24% |
| CC(O)CCC(=O)NNC1CC(=O)N(c2ccccc2)C1=O (stereo unspecified) | inactive: 18.7% |
| NNc1nc(-c2ccccc2)cs1 | inactive: 5.02% |
| O=S(=O)(Nc1ccccc1Br)c1cccs1 | inactive: 18.6% |
| CCN(CC)S(=O)(=O)c1ccc(C)c(NC(=O)CSc2nc3ccc(C)cc3[nH]2)c1 | inactive: 10.6% |
| Cc1ccc(NC(=O)C(C)N=C2NS(=O)(=O)c3ccccc32)cc1F (stereo unspecified) | inactive: -11.1% |

| Compound | growth rescue (activation) |
| --- | --- |
| COc1ccccc1N1CCN(CCNC(=O)Nc2cccc(C)c2C)CC1 | inactive: -3.5% |
| COCCn1c(=O)[nH]c(=O)c2c1nc(-c1ccc(-c3ccc(Cl)cc3[N+](=O)[O-])o1)n2Cc1ccccc1 | inactive: 20% |
| COC(=O)CCCC(=O)N(C)CC1CCCN(CCc2ccccc2C)C1 (stereo unspecified) | inactive: -5.55% |
| Cc1ccc(S(=O)(=O)c2nc(-c3cccs3)oc2N2CCC(C(N)=O)CC2)cc1 | inactive: -3.17% |
| COc1ccccc1CNC(=O)C(C)c1ccc([N+](=O)[O-])cc1 (stereo unspecified) | inactive: 11.2% |
| O=C(NCc1ccccc1Cl)c1cc(=O)[nH]c2ccccc12 | inactive: 10.9% |
| Cc1ccccc1NC(=O)N1CCc2cc(S(=O)(=O)N3CCC(C)CC3)ccc21 | inactive: 5.17% |
| Cc1ccc(Nc2nc3ccccc3s2)cc1 | inactive: 20.5% |
| COc1cc(/C=C/C(=O)O)cc(S(=O)(=O)Nc2cc(Cl)c(Cl)cc2Cl)c1OC | inactive: -1.99% |
| CC(=O)Nc1cncc(-c2cccc(C(=O)N(C)C)c2)n1 | inactive: 16.6% |
| O=C(NNC(=O)c1cc2ccccc2cc1O)c1cccs1 | inactive: 4.69% |
| COc1ccc(CCNC(=O)CCC(=O)Nc2nnc(C(C)C)s2)cc1OC | inactive: -1.39% |
| CC(C)c1csc(CN2CCN(Cc3ccccc3)C(CCO)C2)n1 (stereo unspecified) | inactive: -3.02% |
| Cc1ccsc1/C=N/n1cnnc1 | inactive: 8.91% |
| O=C1c2ccccc2C(=O)N1Cc1ccccc1F | inactive: 6.47% |
